Legend:
[1] = molecular target: BARTL1 (CCDC104/CFAP36) 1-133 (Homo sapiens, UniProt Q96G28); assay: fluorescence polarization
BARTL1 (CCDC104/CFAP36) = BARTL1 (CCDC104/CFAP36) (Homo sapiens, UniProt Q96G28); assay: fluorescence polarization
BARTL1 (CCDC104/CFAP36), sequence (Q96G28 whole entry): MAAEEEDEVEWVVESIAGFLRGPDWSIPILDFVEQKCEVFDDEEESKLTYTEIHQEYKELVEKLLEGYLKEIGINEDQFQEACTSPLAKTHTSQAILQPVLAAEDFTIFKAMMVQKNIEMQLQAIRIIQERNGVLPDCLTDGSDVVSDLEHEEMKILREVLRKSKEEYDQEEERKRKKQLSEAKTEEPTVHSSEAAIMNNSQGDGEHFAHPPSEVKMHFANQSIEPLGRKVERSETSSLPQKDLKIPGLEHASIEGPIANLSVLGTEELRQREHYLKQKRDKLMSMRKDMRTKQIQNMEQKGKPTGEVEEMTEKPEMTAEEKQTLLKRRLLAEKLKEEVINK

B1: Arl3 (protein)
chain: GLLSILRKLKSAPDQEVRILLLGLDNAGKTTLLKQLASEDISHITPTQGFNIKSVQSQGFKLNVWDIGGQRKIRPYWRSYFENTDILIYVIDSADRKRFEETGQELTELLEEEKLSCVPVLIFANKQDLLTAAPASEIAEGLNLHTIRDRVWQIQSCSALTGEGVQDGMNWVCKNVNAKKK
modifications: mant-GppNHp-bound Arl3
B1 showed a Kd [1] of 430 nM and a Kd (BARTL1 (CCDC104/CFAP36)) of 1000 nM.
